Measurements taken from article PMC12624062.
No constants are given. Whether binding was seen depends on the method and setting. In cells and extracts the contact can be indirect. Some entries that bind do so weakly or less than the wild type.

Chains of the proteins cited; added tags and fusions are not shown.
UniProt Q9JMB7: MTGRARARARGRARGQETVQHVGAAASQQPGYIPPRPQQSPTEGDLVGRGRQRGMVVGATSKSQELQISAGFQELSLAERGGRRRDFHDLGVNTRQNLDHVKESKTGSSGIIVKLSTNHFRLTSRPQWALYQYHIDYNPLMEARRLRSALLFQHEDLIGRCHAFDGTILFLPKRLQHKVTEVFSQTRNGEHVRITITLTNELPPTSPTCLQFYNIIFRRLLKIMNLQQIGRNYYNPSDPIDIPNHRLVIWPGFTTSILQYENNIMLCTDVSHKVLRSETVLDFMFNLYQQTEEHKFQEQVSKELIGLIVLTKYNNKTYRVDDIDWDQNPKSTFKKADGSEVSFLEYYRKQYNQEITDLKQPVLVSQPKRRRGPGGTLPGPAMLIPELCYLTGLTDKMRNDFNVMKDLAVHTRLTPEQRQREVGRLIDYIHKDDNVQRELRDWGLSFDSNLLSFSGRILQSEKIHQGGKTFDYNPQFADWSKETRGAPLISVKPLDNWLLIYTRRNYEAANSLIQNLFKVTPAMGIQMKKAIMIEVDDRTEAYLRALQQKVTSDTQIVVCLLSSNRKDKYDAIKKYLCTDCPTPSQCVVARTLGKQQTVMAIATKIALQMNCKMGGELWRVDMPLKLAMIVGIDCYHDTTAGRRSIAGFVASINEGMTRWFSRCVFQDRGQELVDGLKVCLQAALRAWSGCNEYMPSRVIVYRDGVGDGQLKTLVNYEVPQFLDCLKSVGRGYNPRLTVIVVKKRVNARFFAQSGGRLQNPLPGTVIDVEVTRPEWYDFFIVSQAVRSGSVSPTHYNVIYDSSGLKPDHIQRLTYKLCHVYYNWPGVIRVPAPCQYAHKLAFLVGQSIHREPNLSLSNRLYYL

How the values were obtained:
Experiment in all cases: co-IP; 293T cells transiently transfected with tagged mouse proteins; lysis in 150 mM NaCl, 50 mM Tris-HCl pH 7.4, 1% Triton X-100, 1 mM EDTA; Protein A/G agarose beads and antibodies overnight at 4 °C; washes with 300 mM NaCl; Western blot for Flag, HA, GFP; some panels with the methyltransferase inhibitor MTA
TDRKH (mouse) = molecular target: T1, TDRKH (mouse) (UniProt Q80VL1)
T1 sequence: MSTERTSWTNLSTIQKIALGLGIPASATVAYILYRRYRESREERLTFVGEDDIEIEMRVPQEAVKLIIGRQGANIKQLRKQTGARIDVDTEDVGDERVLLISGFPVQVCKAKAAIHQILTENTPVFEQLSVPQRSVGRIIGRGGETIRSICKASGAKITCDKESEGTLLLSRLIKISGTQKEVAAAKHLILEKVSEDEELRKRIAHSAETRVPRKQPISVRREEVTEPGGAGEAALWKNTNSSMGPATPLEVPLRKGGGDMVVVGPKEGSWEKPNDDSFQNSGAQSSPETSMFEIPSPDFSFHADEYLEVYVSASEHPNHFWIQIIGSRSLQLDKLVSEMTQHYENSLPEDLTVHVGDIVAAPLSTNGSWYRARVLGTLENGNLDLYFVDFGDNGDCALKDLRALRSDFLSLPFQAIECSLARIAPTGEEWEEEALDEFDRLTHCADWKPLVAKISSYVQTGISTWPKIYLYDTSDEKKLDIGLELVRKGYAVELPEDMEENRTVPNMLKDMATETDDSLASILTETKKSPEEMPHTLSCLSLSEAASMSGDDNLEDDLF

TDRD1 (mouse) = molecular target: T2, TDRD1 (mouse) (UniProt Q99MV1)
T2 sequence: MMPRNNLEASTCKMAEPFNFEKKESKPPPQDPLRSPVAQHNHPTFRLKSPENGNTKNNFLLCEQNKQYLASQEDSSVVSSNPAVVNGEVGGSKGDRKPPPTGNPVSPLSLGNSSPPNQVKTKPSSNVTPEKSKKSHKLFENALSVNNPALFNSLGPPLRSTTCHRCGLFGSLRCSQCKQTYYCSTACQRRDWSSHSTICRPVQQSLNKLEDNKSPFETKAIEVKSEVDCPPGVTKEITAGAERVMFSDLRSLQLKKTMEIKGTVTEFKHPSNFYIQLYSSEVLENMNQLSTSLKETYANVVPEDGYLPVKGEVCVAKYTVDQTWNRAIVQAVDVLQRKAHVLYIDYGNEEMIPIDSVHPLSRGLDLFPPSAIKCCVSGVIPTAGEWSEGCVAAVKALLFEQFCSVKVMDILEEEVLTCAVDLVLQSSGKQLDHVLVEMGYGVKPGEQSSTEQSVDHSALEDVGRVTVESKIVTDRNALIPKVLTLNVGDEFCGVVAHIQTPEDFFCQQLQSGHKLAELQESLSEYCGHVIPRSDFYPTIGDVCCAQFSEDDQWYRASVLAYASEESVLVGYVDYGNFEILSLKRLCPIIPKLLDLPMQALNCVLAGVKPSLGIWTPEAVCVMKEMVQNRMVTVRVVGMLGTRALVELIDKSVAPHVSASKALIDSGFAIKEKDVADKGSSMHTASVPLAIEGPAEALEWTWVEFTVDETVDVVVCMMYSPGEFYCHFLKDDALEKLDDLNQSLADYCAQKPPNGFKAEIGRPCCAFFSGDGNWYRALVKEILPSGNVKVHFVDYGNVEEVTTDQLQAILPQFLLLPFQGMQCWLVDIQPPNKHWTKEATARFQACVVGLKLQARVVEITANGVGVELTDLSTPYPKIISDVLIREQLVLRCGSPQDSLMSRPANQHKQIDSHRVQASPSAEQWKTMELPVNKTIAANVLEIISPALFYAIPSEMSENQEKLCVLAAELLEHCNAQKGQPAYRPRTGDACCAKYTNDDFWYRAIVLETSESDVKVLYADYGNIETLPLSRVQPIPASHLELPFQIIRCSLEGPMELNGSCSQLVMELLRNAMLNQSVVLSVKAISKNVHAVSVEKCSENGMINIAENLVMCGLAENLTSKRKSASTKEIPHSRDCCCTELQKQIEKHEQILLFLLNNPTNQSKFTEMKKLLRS

ASZ1 (mouse) = molecular target: T3, ASZ1 (mouse) (UniProt Q8VD46)
T3 sequence: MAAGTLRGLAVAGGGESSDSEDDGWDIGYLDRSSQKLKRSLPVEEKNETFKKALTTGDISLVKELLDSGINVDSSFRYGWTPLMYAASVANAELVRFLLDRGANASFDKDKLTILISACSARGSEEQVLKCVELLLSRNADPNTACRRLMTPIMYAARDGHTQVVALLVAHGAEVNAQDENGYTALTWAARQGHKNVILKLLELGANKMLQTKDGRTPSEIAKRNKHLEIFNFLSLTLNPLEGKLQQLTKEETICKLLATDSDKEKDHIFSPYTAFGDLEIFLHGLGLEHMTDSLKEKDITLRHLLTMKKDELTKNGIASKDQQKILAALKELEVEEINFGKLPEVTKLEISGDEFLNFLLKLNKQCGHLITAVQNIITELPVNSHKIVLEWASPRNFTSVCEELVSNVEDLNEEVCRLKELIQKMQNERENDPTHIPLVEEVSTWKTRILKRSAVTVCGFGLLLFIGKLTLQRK

mitoPLD (mouse) = molecular target: T4, mitoPLD (mouse) (UniProt Q5SWZ9)
T4 sequence: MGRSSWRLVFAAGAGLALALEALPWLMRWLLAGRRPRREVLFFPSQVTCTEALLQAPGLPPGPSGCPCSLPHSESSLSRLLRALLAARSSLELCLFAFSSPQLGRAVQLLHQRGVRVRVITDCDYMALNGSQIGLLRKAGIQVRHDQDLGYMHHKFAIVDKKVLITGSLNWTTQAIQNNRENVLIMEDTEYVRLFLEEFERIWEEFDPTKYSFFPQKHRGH

GPAT2 (mouse) = molecular target: T5, GPAT2 (mouse) (UniProt Q14DK4)
T5 sequence: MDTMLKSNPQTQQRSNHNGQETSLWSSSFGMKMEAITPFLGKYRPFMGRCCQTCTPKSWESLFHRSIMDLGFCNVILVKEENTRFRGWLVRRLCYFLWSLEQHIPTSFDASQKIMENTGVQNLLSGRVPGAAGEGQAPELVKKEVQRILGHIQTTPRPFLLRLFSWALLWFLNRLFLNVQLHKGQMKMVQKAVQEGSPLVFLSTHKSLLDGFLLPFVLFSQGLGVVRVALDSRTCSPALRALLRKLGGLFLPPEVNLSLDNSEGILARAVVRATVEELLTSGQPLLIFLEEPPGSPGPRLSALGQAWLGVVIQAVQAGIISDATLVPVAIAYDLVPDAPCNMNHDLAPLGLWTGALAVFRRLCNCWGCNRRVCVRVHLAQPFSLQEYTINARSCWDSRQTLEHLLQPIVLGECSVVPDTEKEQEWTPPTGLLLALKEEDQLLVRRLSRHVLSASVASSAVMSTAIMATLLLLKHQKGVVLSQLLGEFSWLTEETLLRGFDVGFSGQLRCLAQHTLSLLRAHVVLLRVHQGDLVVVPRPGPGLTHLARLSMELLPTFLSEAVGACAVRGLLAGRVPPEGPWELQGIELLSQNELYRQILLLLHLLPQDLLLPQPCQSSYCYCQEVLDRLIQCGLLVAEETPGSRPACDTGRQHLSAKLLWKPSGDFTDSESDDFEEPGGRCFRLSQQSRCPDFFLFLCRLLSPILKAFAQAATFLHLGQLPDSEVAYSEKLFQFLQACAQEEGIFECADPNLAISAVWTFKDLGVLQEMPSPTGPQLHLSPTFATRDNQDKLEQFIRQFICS

Substance: PIWIL1 (from UniProt Q9JMB7 1-862)
- binding (TDRKH (mouse)): binds
- binding (TDRD1 (mouse)): binds
- binding (ASZ1 (mouse)): no binding
- binding (mitoPLD (mouse)): no binding
- binding (GPAT2 (mouse)): no binding
